Where “and” joins values, the source holds several entries; their conditions need not be identical. Identical values can stand only once. In all, about 410,000 compounds went through this assay and about 6,400 (1.6%) were called active. The inconclusive results got no clear call from the source; some entries with a clear call stand among them for comparison. Calls follow the shape of the dose curve; as a rule, active = well fitted inhibition curve with a large enough effect; inconclusive = small, poorly fitted or top-dose-only effect; inactive = no such curve, though single readings can be large or run the other way. Where the call is inconclusive, the potency comes from a doubtful curve fit.
Molecular target: Glucagon-like peptide 1 receptor (Homo sapiens) (UniProt P43220)
Experiment: qHTS of GLP-1 Receptor Inverse Agonists (Inhibition Mode); also: nearly all actives have a fitted effect of over 55% in size
Conditions: HEK293 GLP-1R CRE-luciferase, luminescence, 24 h, GLP-1R form is constitutively active; activity change, negative = inhibition: at 38.3 µM (top of the series) unless noted
Method in brief: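 qHTS in 1536-well format: reporter HEK293 cells expressing constitutive GLP-1R activity in DMEM + 10% Nu serum, 24 hr with compounds at 37 deg C, luminescence read after 12 min with detection reagent.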
% is scaled to controls: 0 for no effect and ±100 for the full control effect; potency is read from the fitted curve at half-maximal effect; tags tell the direction and shape of the fitted curve.

Chain of UniProt P43220 (P43220 whole entry, looked up): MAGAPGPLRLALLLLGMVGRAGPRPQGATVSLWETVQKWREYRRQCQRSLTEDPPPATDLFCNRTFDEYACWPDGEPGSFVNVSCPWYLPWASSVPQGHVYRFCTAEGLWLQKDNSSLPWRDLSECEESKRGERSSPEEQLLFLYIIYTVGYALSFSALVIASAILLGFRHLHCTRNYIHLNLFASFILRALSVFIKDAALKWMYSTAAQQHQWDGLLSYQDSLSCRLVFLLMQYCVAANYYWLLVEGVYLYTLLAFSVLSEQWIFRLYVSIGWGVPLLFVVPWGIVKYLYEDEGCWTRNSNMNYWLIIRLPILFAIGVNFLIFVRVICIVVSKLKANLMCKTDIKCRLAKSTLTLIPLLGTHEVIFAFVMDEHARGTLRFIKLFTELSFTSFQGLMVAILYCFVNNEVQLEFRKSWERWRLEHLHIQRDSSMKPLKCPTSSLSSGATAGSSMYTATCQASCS

Potency, inconclusive:
CCCCN(CC)CCNC(=O)c1cc2c(-c3ccc(Cl)cc3)nn(C)c2s1 28.2 µM [inhibitor, single point] and 11.2 µM [inhibitor, partial curve, poor fit], COc1ccc(-c2ccc(CN3C(CC(C)C)C(=O)N(Cc4cn(Cc5ccco5)nn4)CCS3(=O)=O)cc2)cc1 (stereo unspecified) 10 µM [inhibitor, partial curve, poor fit], CN(CC(=O)Nc1ccccc1Oc1ccccc1)Cc1ccccc1F 3.55 µM [inhibitor, partial curve, poor fit], CCNc1nc(CN2CCCCC2)nc2scc(-c3ccccc3)c12 17.8 µM [inhibitor, partial curve, poor fit], CN(C(=O)COC(=O)c1cn(-c2ccccc2)nc1-c1ccccc1)C1CCS(=O)(=O)C1 (stereo unspecified) 5.62 µM [inhibitor, full curve], FC(F)Oc1ccc(-c2csc(NNC3=NCCCCC3)n2)cc1 28.2 µM [inhibitor, single point], Cc1ccc(S(=O)(=O)c2nc(-c3ccco3)oc2SC(C)c2ccccc2)cc1 (stereo unspecified) 12.6 µM [inhibitor, single point], O=C(COC(=O)C12CC3CC(CC(Cl)(C3)C1)C2)Nc1ccccc1 3.16 µM [inhibitor, partial curve], COc1cccc(CNC(=O)c2ccc(Cn3c(SCc4ccccc4)nc4cccnc43)cc2)c1 28.2 µM [inhibitor, single point], COc1ccccc1NC(=O)Cn1nnc(-c2ccccc2NS(=O)(=O)c2ccccc2)n1 12.6 µM [inhibitor, partial curve, poor fit], CCOC(=O)C1=C(N)n2c(s/c(=C\c3cccs3)c2=O)=C(C(=O)OCC)C1c1cccs1 (stereo unspecified) 2.82 µM [inhibitor, full curve, poor fit], COc1ccccc1C(=O)NC(CCSC)C(=O)NCCCSc1ccccc1 (stereo unspecified) 20 µM [inhibitor, single point], CC(C)N1CCN(Cc2ccc(OC3CCCC3)cc2)CC1CCO (stereo unspecified) 10 µM [inhibitor, partial curve, poor fit], CCN(Cc1ccc2c(c1)OCCO2)C(=O)CSc1nc(C)nc2sc(C)c(C)c12 20 µM [inhibitor, single point], Cn1nccc1C(=O)NCc1ccc2c(c1)CCN2C(=O)c1ccc(F)cc1 7.08 µM [inhibitor, partial curve, poor fit], Cc1ccc(C(=O)N2CCC(c3c[nH]c4ccccc34)(c3c[nH]c4ccccc34)CC2)cc1 11.2 µM [inhibitor, partial curve, poor fit], COc1ccc(CCN=C(NS(=O)(=O)c2ccc(Cl)cc2)c2ccccc2)cc1 15.8 µM [inhibitor, partial curve, poor fit], CC(=O)Nc1ccc(SC[C@H](Cc2ccccc2)N2CC[C@@H](C(C)(C)C)CCC2=O)cc1 28.2 µM [inhibitor, single point], CCOC(=O)c1cc2occc2n1CC(=O)N1CCCc2ccccc21 10 µM [inhibitor, partial curve], COc1ccc(OC)c(NC(=O)c2c(NCc3ccc(C)o3)sc3c2CCC(C)C3)c1 (stereo unspecified) 28.2 µM [inhibitor, single point], Cn1c(-c2ccccc2)cc2onc(-c3ccccc3)c2c1=O 2.82 µM [inhibitor, full curve, poor fit], Cc1ccc(CN2CC(C(=O)Nc3ccc(C)c(S(=O)(=O)N4CCCCC4)c3)CC2=O)cc1 (stereo unspecified) 11.2 µM [inhibitor, single point], O=C(Nc1ccc(CN2CCOCC2)cc1)c1ccc(-c2cc(Cl)ccc2Cl)o1 3.55 µM [inhibitor, partial curve, poor fit], O=C(Nc1nc2ccccc2s1)c1ccc2c(c1)OCO2 8.91 µM [inhibitor, single point], Cc1cccc(N(CC(=O)Nc2ccc(Br)cc2)S(C)(=O)=O)c1C 14.1 µM [inhibitor, partial curve, poor fit], CCOC(=O)C1(Cc2cccc(OC)c2)CCN(Cc2cccn2-c2nccs2)CC1 11.2 µM [inhibitor, partial curve, poor fit], Nc1c(C(=O)Nc2ccccc2)sc2nc3c(c(-c4ccco4)c12)CCC3 2.82 µM [inhibitor, full curve], COCCCn1c(C)cc(C(=O)COC(=O)C23CC4CC(CC(O)(C4)C2)C3)c1C 0.501 µM [inhibitor, full curve, poor fit], CC(C)c1ccc(C(=O)N2CCCC(c3cc(C(=O)NCc4ccccc4)no3)C2)cc1 (stereo unspecified) 28.2 µM [inhibitor, single point], O=C1/C(=C/c2cccc(Cl)c2)CSc2sccc21 11.2 µM [inhibitor, single point], O=C(O)COc1ccccc1C=NNc1ccc([N+](=O)[O-])cc1S(=O)(=O)Nc1ccc(Cl)cc1 12.6 µM [inhibitor, single point], CC(C)(C)C(=O)Nc1ccc(/C=C/C(=O)c2ccco2)cc1 28.2 µM [inhibitor, single point], Cc1ccc(-c2nn(-c3ccccc3)cc2/C=N/O)cc1 7.94 µM [inhibitor, partial curve, poor fit], CCn1c(SCC(=O)Nc2ccc3c(c2)oc2ccccc23)nnc1-c1ccc(N)cc1 11.2 µM [inhibitor, partial curve, poor fit], CCOC(=O)[C@]12CCC=C1N(Cc1cccc3ccccc13)C(=O)[C@H](CC(=O)N1CCN(C(=O)c3ccco3)CC1)C2 15.8 µM [inhibitor, partial curve, poor fit], CC1(C)Cc2cccc(Oc3ccc(S(=O)(=O)N4CCCCC4)cn3)c2O1 28.2 µM [inhibitor, single point], O=C(N/N=C/c1ccc(O)cc1O)C(=O)N/N=C/c1ccc(O)cc1O 28.2 µM [inhibitor, single point], CCn1c(Nc2ccccc2Cl)nc2ccccc21 10 µM [inhibitor, single point], CSc1cccc(CN2CCC(Oc3cccc(C(=O)N4CCCC4)c3)CC2)c1 31.6 µM [inhibitor, partial curve, poor fit], C=CCc1ccc(OCCOCCOc2ccccc2[N+](=O)[O-])c(OC)c1 10 µM [inhibitor, partial curve, poor fit], Cc1cccc(C)c1NC(=O)CN(C)C(=O)Cc1cccc(C(F)(F)F)c1 11.2 µM [inhibitor, partial curve, poor fit], CCNC(=S)N/N=C/c1cn(Cc2ccccc2F)c2ccccc12 11.2 µM [inhibitor, partial curve], S=c1[nH]nc(-c2ccccc2)n1/N=C/c1ccc(-c2ccccc2Cl)o1 2.82 µM [inhibitor, full curve], COc1ccccc1Cn1c(=S)[nH]c2cc(C(=O)NCCCN3CCOCC3)ccc2c1=O 28.2 µM [inhibitor, single point], Cc1ccc2[nH]c3c(c2c1)CN(C(=O)CN1CCCCC1)CC3 10 µM [inhibitor, partial curve, poor fit], Cc1ccc(CSc2nc3ccc(NC(=O)C(C)C)cc3s2)cc1 25.1 µM [inhibitor, single point]

Potency, active:
O=C(Cc1cccs1)Nc1cccc(-c2nc3cc4ccccc4cc3[nH]2)c1 11.2 µM

Activity change, negative = inhibition, inactive:
Cc1nc2ccccc2n1CC(O)COc1ccc(C(=O)O)cc1 (stereo unspecified) -8.03%, COc1cccc(NC(=O)CN(C)CC(=O)Nc2ccc(Br)cc2)c1 -1.51% [at 0.307 µM], Cc1ccc(NC(=O)c2ccccc2-c2ccccc2C(=O)O)cc1 11%, CCc1nc2ccc(C(=O)Nc3cccc(OCC(=O)N(C)C)c3)cn2c1N(C)Cc1ccc(N(C)C)cc1 19.1%, C(=C\c1ccccc1)/C=N/Nc1nc2ccccc2s1 0%, CC(C)c1cccc(C(C)C)c1OC(=O)[C@H]1OC(C(C)(C)C)=C[C@@H]1c1ccccc1 3.88%, COc1ccc(C(=O)NCc2ccc3c(c2)CCN3C(=O)c2ccncc2)cc1 -8.13%, O=C(O)c1cc(-c2ccco2)nc2cc3ccccc3cc12 -2.39%, Cc1ccccc1CNC(=O)Cc1ccccc1[N+](=O)[O-] 0.808%, CCN(Cc1ccccc1)C(=O)Cn1c(=O)n(Cc2ccccc2)c(=O)c2c1c1cc(OC)ccc1n2C 5.34%, O=C(NCC(c1cccnc1)N1CCN(Cc2ccccc2)CC1)C(=O)Nc1ccc(Cl)cc1 (stereo unspecified) -29%, CCOC(=O)C1C(=O)CC(=O)C(C(=O)OCC)C1c1ccc(O)cc1 (stereo unspecified) -6.44%, OCCNC(=S)NCCc1ccccc1 1.61%, CN1c2ccccc2-c2nc(SCC(=O)Nc3ccccc3C(F)(F)F)ncc2S1(=O)=O -3.64%

Source: PubChem BioAssay AID624417 (National Center for Advancing Translational Sciences (NCATS), 2012)
